Source: the GPR68 mutational scans of Howard et al. (2025)
Scores whose standard error is large were omitted. Not listed are two conditions whose scores span a narrow range. Names with del lack the residues named; names with ins carry added residues between the positions named. For part of these data: How much ogerin was present is not stated here.

B1: GPR68, Q15743 (parent)
chain: MGNITADNSSMSCTIDHTIHQTLAPVVYVTVLVVGFPANCLSLYFGYLQIKARNELGVYLCNLTVADLFYICSLPFWLQYVLQHDNWSHGDLSCQVCGILLYENIYISVGFLCCISVDRYLAVAHPFRFHQFRTLKAAVGVSVVIWAKELLTSIYFLMHEEVIEDENQHRVCFEHYPIQAWQRAINYYRFLVGFLFPICLLLASYQGILRAVRRSHGTQKSRKDQIQRLVLSTVVIFLACFLPYHVLLLVRSVWEASCDFAKGVFNAYHFSLLLTSFNCVADPVLYCFVSETTHRDLARLRGACLAFLTCSRTGRAREAYPLGAPEASGKSGAQGEEPELLTKLHPAFQTPNSPGSGGFPTGRLA

What was measured:
[1] = variants of: B1; test: cAMP reporter score (Enrich2 score, wild type = 0); higher = more signal; HEK293T, FACS bins
[2] = variants of: B1; test: surface expression score (Enrich2 score, wild type = 0); higher = more signal; HEK293T, FACS bins

Variant | cAMP reporter score ([1]; pH 5.5) | cAMP reporter score ([1]; pH 6) | cAMP reporter score ([1]; pH 6, modulator: ogerin) | cAMP reporter score ([1]; pH 6.5, modulator: ogerin) | surface expression score [2]
I19_Q21del | -0.3 | -0.609 | -1.63 | -0.467 | -1.73
T18_I19insGS | -0.18 | 0.784 | 0.494 | 1.5 | 0.394
MGNITADNSSMSCTIDHTIHQALAPVVYVTVLVVGFPANCLSLYFGYLQIKARNELGVYLCNLTVADLFYICSLPFWLQYVLQHDNWSHGDLSCQVCGILLYENIYISVGFLCCISVDRYLAVAHPFRFHQFRTLKAAVGVSVVIWAKELLTSIYFLMHEEVIEDENQHRVCFEHYPIQAWQRAINYYRFLVGFLFPICLLLASYQGILRAVRRSHGTQKSRKDQIQRLVLSTVVIFLACFLPYHVLLLVRSVWEASCDFAKGVFNAYHFSLLLTSFNCVADPVLYCFVSETTHRDLARLRGACLAFLTCSRTGRAREAYPLGAPEASGKSGAQGEEPELLTKLHPAFQTPNSPGSGGFPTGRLA [T22A] | 0.078 | -0.665 | -0.534 | -1.04 | -0.679
MGNITADNSSMSCTIDHTIHQCLAPVVYVTVLVVGFPANCLSLYFGYLQIKARNELGVYLCNLTVADLFYICSLPFWLQYVLQHDNWSHGDLSCQVCGILLYENIYISVGFLCCISVDRYLAVAHPFRFHQFRTLKAAVGVSVVIWAKELLTSIYFLMHEEVIEDENQHRVCFEHYPIQAWQRAINYYRFLVGFLFPICLLLASYQGILRAVRRSHGTQKSRKDQIQRLVLSTVVIFLACFLPYHVLLLVRSVWEASCDFAKGVFNAYHFSLLLTSFNCVADPVLYCFVSETTHRDLARLRGACLAFLTCSRTGRAREAYPLGAPEASGKSGAQGEEPELLTKLHPAFQTPNSPGSGGFPTGRLA [T22C] | -0.599 | -0.931 | -1.25 | -0.434 | -0.064
T18_I19insGSG | 0.277 | 0.227 | 0.541 | -0.367 | -0.294
Q21del | -1.19 | -0.778 | -0.711 | -0.801 | 0.458
Q21_T22del | -1.29 | -1.07 | -1.78 | -0.55 | -0.478
MGNITADNSSMSCTIDYTIHQTLAPVVYVTVLVVGFPANCLSLYFGYLQIKARNELGVYLCNLTVADLFYICSLPFWLQYVLQHDNWSHGDLSCQVCGILLYENIYISVGFLCCISVDRYLAVAHPFRFHQFRTLKAAVGVSVVIWAKELLTSIYFLMHEEVIEDENQHRVCFEHYPIQAWQRAINYYRFLVGFLFPICLLLASYQGILRAVRRSHGTQKSRKDQIQRLVLSTVVIFLACFLPYHVLLLVRSVWEASCDFAKGVFNAYHFSLLLTSFNCVADPVLYCFVSETTHRDLARLRGACLAFLTCSRTGRAREAYPLGAPEASGKSGAQGEEPELLTKLHPAFQTPNSPGSGGFPTGRLA [H17Y] | 0.273 | -0.436 | 0.045 | -0.447 | 1.1
MGNITADNSSMSCTIDWTIHQTLAPVVYVTVLVVGFPANCLSLYFGYLQIKARNELGVYLCNLTVADLFYICSLPFWLQYVLQHDNWSHGDLSCQVCGILLYENIYISVGFLCCISVDRYLAVAHPFRFHQFRTLKAAVGVSVVIWAKELLTSIYFLMHEEVIEDENQHRVCFEHYPIQAWQRAINYYRFLVGFLFPICLLLASYQGILRAVRRSHGTQKSRKDQIQRLVLSTVVIFLACFLPYHVLLLVRSVWEASCDFAKGVFNAYHFSLLLTSFNCVADPVLYCFVSETTHRDLARLRGACLAFLTCSRTGRAREAYPLGAPEASGKSGAQGEEPELLTKLHPAFQTPNSPGSGGFPTGRLA [H17W] | -0.385 | -0.45 | -0.251 | -0.478 | 1.49
